Results filed as inconclusive are left out. Not every entry of the source has a single result; some have several. They are shown here; other results are not. There may be further records. Values given together are repeated measurements (runs, samples, wells, individuals or studies).
System: mice, ADJ-PC-20 plasma cell tumor sc, T/C %
Assay: NCI In Vivo Anticancer Drug Screen. Data for tumor model ADJ-PC-20 Plasma Cell (subcutaneous) in unknown mice
Conditions: endpoint: mean tumor weight, higher = larger tumour
Procedure: The antitumor activity of compounds was measured in mice bearing transplantable tumors. Survival or tumor size were measured and the results are expressed as the measurement made in the treated group (T) divided by the measurement made in the vehicle treated control group (C). The tumor model used in this assay is ADJ-PC-20 Plasma Cell (subcutaneous) in unknown mice

[1] = dose: 250.0 mg/kg/injection, schedule: Q01DX010 (sc), vehicle: steriod suspending solution

Structure (SMILES): Clc1ccc(C(c2ccccc2Cl)C(Cl)Cl)cc1 (stereo not drawn)
- T/C (dose: 100.0 mg/kg/injection, schedule: Q01DX010 (sc), vehicle: steriod suspending solution): 41 % of control and 92 % of control

Structure (SMILES): O=C(Nc1ccc(C2=NCCN2)cc1)c1ccc(C(=O)Nc2ccc(C3=NCCN3)cc2)c(Cl)c1
- T/C (dose: 15.0 mg/kg/injection, schedule: Q01DX010 (ip), vehicle: water): 62 % of control and 90 % of control
- T/C (dose: 25.0 mg/kg/injection, schedule: Q01DX010 (ip), vehicle: water): 62 % of control and 112 % of control

Structure (SMILES): C[C@]12CCC(=O)C[C@H]1CC[C@@H]1[C@@H]2CC[C@@]2(C)[C@H]1CC[C@]2(C)O
- T/C [1]: 95 % of control and 122 % of control

Structure (SMILES): S=P(N1CCOCC1)(N1CC1)N1CC1
- T/C (dose: 6.25 mg/kg/injection, schedule: Q01DX010 (ip), vehicle: carboxymethylcellulose (CMC)): 22 % of control, 51 % of control, 60 % of control

Structure (SMILES): CC[C@]1(O)C[C@H]2CN(CCc3c([nH]c4ccccc34)[C@@](C(=O)OC)(c3cc4c(cc3OC)N(C=O)[C@H]3[C@@](O)(C(=O)OC)[C@H](OC(C)=O)[C@]5(CC)C=CCN6CC[C@]43[C@@H]65)C2)C1
- T/C (dose: 0.25 mg/kg/injection, schedule: Q01DX010 (ip), vehicle: water): 89 % of control and 117 % of control

Structure (SMILES): N=[N+]=CC(=O)OCC(N)C(=O)O (stereo not drawn)
- T/C (dose: 2.5 mg/kg/injection, schedule: Q01DX010 (ip), vehicle: saline): 76 % of control and 109 % of control

Structure (SMILES): Nc1nc2n[nH]nc2c(=O)[nH]1
- T/C (dose: 25.0 mg/kg/injection, schedule: Q01DX010 (ip), vehicle: other): 95 % of control and 170 % of control
- T/C (dose: 50.0 mg/kg/injection, schedule: Q01DX010 (ip), vehicle: other): 52 % of control and 95 % of control

Structure (SMILES): O=c1[nH]c(=O)n(C2CC(O)C(CO)O2)cc1Br (stereo not drawn)
- T/C (dose: 250.0 mg/kg/injection, schedule: Q01DX010 (ip), vehicle: carboxymethylcellulose (CMC)): 33 % of control and 89 % of control

Structure (SMILES): CN(Cc1cnc2nc(N)nc(N)c2n1)c1ccc(C(=O)N[C@@H](CCC(=O)O)C(=O)O)cc1
- T/C (dose: 0.16 mg/kg/injection, schedule: Q01DX010 (ip), vehicle: other): 42 % of control, 90 % of control, 103 % of control

Structure (SMILES): CN(C)c1ccc(/C=C/c2ccnc3ccccc23)cc1
- T/C (dose: 4.0 mg/kg/injection, schedule: Q01DX010 (ip), vehicle: carboxymethylcellulose (CMC)): 119 % of control and 158 % of control

Structure (SMILES): CCOC(N)=O
- T/C (dose: 500.0 mg/kg/injection, schedule: Q01DX010 (ip), vehicle: saline): 21 % of control and 56 % of control

Structure (SMILES): CC[C@H](c1ccc(O)cc1)[C@@H](CC)c1ccc(O)cc1
- T/C (dose: 125.0 mg/kg/injection, schedule: Q01DX010 (sc), vehicle: steriod suspending solution): 67 % of control and 180 % of control

Structure (SMILES): Cc1n[nH]c(=O)[nH]c1=O
- T/C (dose: 400.0 mg/kg/injection, schedule: Q01DX010 (ip), vehicle: other): 69 % of control and 105 % of control

Structure (SMILES): O=C1C(NC(=O)C2CCCCC2)=C(N2CC2)C(=O)C(NC(=O)C2CCCCC2)=C1N1CC1
- T/C (dose: 75.0 mg/kg/injection, schedule: Q01DX010 (ip), vehicle: carboxymethylcellulose (CMC)): 24 % of control and 92 % of control

Structure (SMILES): O=NN(CCCl)C(=O)NCCCl
- T/C (dose: 3.1 mg/kg/injection, schedule: Q01DX010 (ip), vehicle: saline): 15 % of control and 77 % of control

Structure (SMILES): C[C@]12CCC(=O)C=C1CC[C@@H]1[C@@H]2CC[C@@]2(C)[C@H]1CC[C@]2(C)O
- T/C [1]: 88 % of control and 117 % of control

From PubChem BioAssay AID332 (DTP/NCI, 2004)
